Results on 72 sequences are retold here after PMC10726135.

The list shows a part of the results. At the low end of the ranking the order means little. Measured with an extract: partners may take part in the binding.

This assay concerns the target T1, HNF4alpha2 (COS-7 nuclear extract) (UniProt P41235).
T1 sequence: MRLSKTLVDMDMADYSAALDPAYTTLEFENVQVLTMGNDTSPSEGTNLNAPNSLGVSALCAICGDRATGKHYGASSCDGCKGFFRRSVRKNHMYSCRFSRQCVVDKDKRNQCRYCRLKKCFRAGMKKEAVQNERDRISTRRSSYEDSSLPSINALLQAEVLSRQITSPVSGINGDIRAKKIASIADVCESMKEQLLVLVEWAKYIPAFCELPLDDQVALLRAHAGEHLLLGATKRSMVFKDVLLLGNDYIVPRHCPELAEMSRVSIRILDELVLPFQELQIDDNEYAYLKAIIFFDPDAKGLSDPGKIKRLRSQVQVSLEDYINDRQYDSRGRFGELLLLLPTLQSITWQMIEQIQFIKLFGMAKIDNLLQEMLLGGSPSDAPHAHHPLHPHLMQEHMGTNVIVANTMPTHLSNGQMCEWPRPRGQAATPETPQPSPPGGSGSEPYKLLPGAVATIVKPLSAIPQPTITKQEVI
Description: protein-binding microarray. The conditions noted are these: COS-7 nuclear extract on double-stranded Agilent 4x180k PBM; binding buffer, salt, pH and temperature not given; high values mean tight binding; double strand, one strand shown; sequences stand for … in …GCCTAGGGAGATTAGAGTATCGGTCGA
Turning to GAGCGGCCTTCGCACCTGCCTGTCTCACCT, the binding signal (log2 normalized intensity) was -0.911.
Turning to AGTCATGTCTTCATGCTTTCAGCCTCTCTG, the binding signal (log2 normalized intensity) stood at 0.358.
As for CATGCCTAGGTAAGCCCACTAGGGAATGAA, the binding signal (log2 normalized intensity) was -1.19.
In the case of GTTTTTTCTTATTTGCTCTCCTGAGGCAAG it was 0.0629; in that of CTTTGCCTGCCCATCCCGTGGACTCTGCCT, 3.75.
On to CTACATTAGCAGCGCCACCAACCATAATTT, for which the binding signal (log2 normalized intensity) worked out at 2.19.
For the sequence GCTACACGGGCCTGAAAACTGGAGGCCGCG, the binding signal (log2 normalized intensity) is -1.14.
In the case of ATGTTTTTGTGTGAGGGAGAAGTTTTATGG, the binding signal (log2 normalized intensity) stood at 2.31.
Consider CAGCTGCTGGTCAAAGGGCATTACTTGCTG, for which the binding signal (log2 normalized intensity) worked out at 3.19.
In the case of TAGCTTTAGCCGGACTTTGTCCTTTGATTT it was 6.43.
TCCTCTCTGAAGGATTTAAATGGAATGACC: the binding signal (log2 normalized intensity) stood at 2.41.
For ATTAGCTGGGGACCCGTCGCTGCTGCACAC, the binding signal (log2 normalized intensity) was -1.1.
To TTGGGGAAGAATAGATTCCATAGATAAGAG belongs -1.24; to CTACCTGACCTGGCATACTACAGAAATCTT, -1.05.
As to CCTTCAAATCAGCCAGTGATTCAACTCTGA, the binding signal (log2 normalized intensity) was determined as 0.879.
On to ATGGAAGCCTTACCAGTAGGACCACATTCA, for which the binding signal (log2 normalized intensity) is -0.858.
Regarding AAGAAGGTTTACTCAAGCAAAAAGTTTGGA, the binding signal (log2 normalized intensity) was 0.467.
Regarding TTTCAGACTATTTTATTTTCCCCCTTTGAA, the binding signal (log2 normalized intensity) is 3.86.
GACCCAAGAAATAAAAACAGCTGGGTTCCA: the binding signal (log2 normalized intensity) was -1.14.
To TTGCCCCTTTGACCCTCGGGCCTCCCTAGA belongs 3.97; to GCAATATGATAACCCAGTGCAATGCCTAAA, -1.06.
With AAAACCACTGTGCTCTGAAAAGTGAACTGT, the binding signal (log2 normalized intensity) stood at 2.1.
With CATGGTTTGCAAGACCTCTGAGAACTGGCC, the binding signal (log2 normalized intensity) was -1.19.
As for CCCACCCCCAAATCCCCTTCAAGTCTGAGA, the binding signal (log2 normalized intensity) was determined as 4.83.
On to TTCTTTCCCTCCAGCCCACTTACCACCCAC, for which the binding signal (log2 normalized intensity) turned out to be 4.32.
Regarding GATAAGAAAAACTGAGCTTTAGATAGCTGT, the binding signal (log2 normalized intensity) is -1.05.
Regarding CGCTTGAGCCTGGGAGGCAAAGGTTGCAGT, the binding signal (log2 normalized intensity) was found to be 2.16.
In the case of GGCGGGGAGAGGGAAGAGTCTTCTCTTGAC it was -1.1; in that of CTAAAACCCATATCTGACTGATGCTAAAGT, 0.16; in that of AGCCTTTTGTCTGGTGGAGTAGAGCACATT, 1.06.
For the sequence CTGAAGTGGCCCAAGATGGAGATGAGAAAC, the binding signal (log2 normalized intensity) was -1.12.
For the sequence ACATCCTGGGTTATGATCCTGGCTCTCCCA, the binding signal (log2 normalized intensity) was -0.952.
To ATGGGGGCTCAGGGCCTCTCTTCTTGTAAT belongs 0.668; to TCTGGTTTGACCTTAAGTCAGAAGAACTGA, 2.56; to AGGTCAGTCGACCCTCTCTGGATGCAGGTC, 1.37.
TAATGAAATACCACTGCACACATAATAGAT: the binding signal (log2 normalized intensity) is -1.11.
Regarding GGTCGGAAGGGAGGTGCCATGTCACCGCAC, the binding signal (log2 normalized intensity) is -0.663.
For CATCCCACATTCCACAGACTCACTTCCAGA, the binding signal (log2 normalized intensity) was -1.
Consider CCAGGTGGCTGCATCCTTCTCCTCCCCTCC, for which the binding signal (log2 normalized intensity) is 3.25.
As for GAAAAATGAATAACTTGAATTGATTGCCAA, the binding signal (log2 normalized intensity) is -0.966.
In the case of TACAGCTCATTAATCATCCGTCACCCAGAC it was 1.16; in that of TGATTACCAGACAAGATCAATCAATTTACC, -0.976; in that of TCAGTGTTTTCACTGCTGGGTTTCTTCCCT, 1.19.
To AACGGCCCAGGGTTAGAGGATGACCTTCCC belongs 2.99; to GTTGACCTTTAGTCTCTAGCCCCGCCCAGA, 4.82; to CTTTCTAATCTCAAAGTGTCAGTCCAGAGT, 2.22.
CTCTGATCCTAGTCTTTGCCCCACTGCAAG: the binding signal (log2 normalized intensity) came to 2.95.
For the sequence CTGGAGGATAAAGTTCAAGTAGATAAAATC, the binding signal (log2 normalized intensity) was determined as 1.37.
Regarding CTGACTAAAGTTCATTGCTTTGAGCATGAG, the binding signal (log2 normalized intensity) was found to be 1.5.
Turning to CTTTGGAGGGAGCCAGGTTATGCAGAGCTT, the binding signal (log2 normalized intensity) is -0.998.
As to GTGACTTGCTCAGTGTCACAGACTTAGCAC, the binding signal (log2 normalized intensity) was -0.428.
CAGTCAGTGAGACGTTCCAAACCGGTCTTT: the binding signal (log2 normalized intensity) came to 0.302.
Regarding TCACCAGATACTGAATCTCCCAGTGCTTTG, the binding signal (log2 normalized intensity) is -0.955.
Regarding GTGTCTTATCTTCCTCTGGCATCTGGTCAG, the binding signal (log2 normalized intensity) is 1.63.
Regarding CTTTACCCCCATTTGGTAATGGGCCCCCAT, the binding signal (log2 normalized intensity) stood at 5.
In the case of GATAGATGCTGCTCTCCCACTCCCCCTGCT, the binding signal (log2 normalized intensity) turned out to be 3.86.
As for TGCTTCCAAGTTATGCAGACCTTTGCCCTT, the binding signal (log2 normalized intensity) amounted to 7.17.
In the case of CCTGCCCTTTGCTCCAGAGGAAGATATTAT it was 1.81; in that of AAGTTTGGTAAGCAGACCCCTACTGGGGAT, -0.74.
Consider TCAGCAGGATTTGTTTGATTTAGGACTTAC, for which the binding signal (log2 normalized intensity) came to 0.991.
Regarding GGCCCCTCTCTTTTATTATATTGAATTCCT, the binding signal (log2 normalized intensity) is 0.242.
As to GGATTAGCGATCATGGGTGACCCGTTAAGA, the binding signal (log2 normalized intensity) came to 1.36.
Take CCGTCCCAAGCTGAGGTCTGGTGTCCAGTT: the binding signal (log2 normalized intensity) was 1.2.
Turning to TTCATCATGATTGTAGCCAAACTCACAGCT, the binding signal (log2 normalized intensity) was -0.386.
To ACTCAAGATAGAGGGCTGCCAAAGCTCACA belongs -1.14.
In the case of GTACTTAAAAATGCCTTTCATCTTTGAGAA it was -0.717; in that of TGGACTAGGCAAAAGACAGTGATTGTCACA, -1.13.
To CCTGTTCAAACTAAACCTAAAGATTCTAAG belongs -1.11.
Take CTTCATCTTCAATACAGAGTCCAAATTCCT: the binding signal (log2 normalized intensity) amounted to 3.25.
To AATACATAAAGTCCAAACCCCTATGTTTAA belongs 2.11; to GCGGGGCCTCCCAGTGGTATGCCTCTGGGT, -0.781.
Regarding AGGGGTTAACCTCTATTGACCTTCTTATTT, the binding signal (log2 normalized intensity) came to 2.97.
